According to PubChem BioAssay AID504332 (National Center for Advancing Translational Sciences (NCATS), 2011):
Values joined by “and” are separate entries in the source; they are usually repeats but may differ in a detail not shown here. Identical values can stand only once. The campaign covered roughly 350,000 compounds. About 31,000 (8.9%) were called active. Inconclusive results, whose numbers are uncertain, are shown with a selection of clear calls. Calls follow the shape of the dose curve; as a rule, active = well fitted inhibition curve with a large enough effect; inconclusive = small, poorly fitted or top-dose-only effect; inactive = no such curve, though single readings can be large or run the other way. Where the call is inconclusive, the potency comes from a doubtful curve fit.

biological target: Histone-lysine N-methyltransferase EHMT2 (Homo sapiens) (UniProt Q96KQ7); assay: qHTS Assay for Inhibitors of Histone Lysine Methyltransferase G9a; conditions: G9a H3K9 monomethylation, AlphaScreen, 2 h; activity, negative = inhibition: at 59 µM (top of the series) unless noted; also: nearly all actives have a fitted effect of over 75% in size
Method in brief: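 AlphaScreen read-out: biotin-H3K9 peptide (500 nM) methylation by 20 nM enzyme with 20 uM SAM, 2 h at room temperature after 15 min compound preincubation; anti-monomethyl H3K9 antibody plus donor/acceptor beads, 10 min dark.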
% is scaled to controls: 0 for no effect and ±100 for the full control effect; potency is read from the fitted curve at half-maximal effect; tags tell the direction and shape of the fitted curve.

Sequence of UniProt Q96KQ7 (Q96KQ7 whole entry, looked up): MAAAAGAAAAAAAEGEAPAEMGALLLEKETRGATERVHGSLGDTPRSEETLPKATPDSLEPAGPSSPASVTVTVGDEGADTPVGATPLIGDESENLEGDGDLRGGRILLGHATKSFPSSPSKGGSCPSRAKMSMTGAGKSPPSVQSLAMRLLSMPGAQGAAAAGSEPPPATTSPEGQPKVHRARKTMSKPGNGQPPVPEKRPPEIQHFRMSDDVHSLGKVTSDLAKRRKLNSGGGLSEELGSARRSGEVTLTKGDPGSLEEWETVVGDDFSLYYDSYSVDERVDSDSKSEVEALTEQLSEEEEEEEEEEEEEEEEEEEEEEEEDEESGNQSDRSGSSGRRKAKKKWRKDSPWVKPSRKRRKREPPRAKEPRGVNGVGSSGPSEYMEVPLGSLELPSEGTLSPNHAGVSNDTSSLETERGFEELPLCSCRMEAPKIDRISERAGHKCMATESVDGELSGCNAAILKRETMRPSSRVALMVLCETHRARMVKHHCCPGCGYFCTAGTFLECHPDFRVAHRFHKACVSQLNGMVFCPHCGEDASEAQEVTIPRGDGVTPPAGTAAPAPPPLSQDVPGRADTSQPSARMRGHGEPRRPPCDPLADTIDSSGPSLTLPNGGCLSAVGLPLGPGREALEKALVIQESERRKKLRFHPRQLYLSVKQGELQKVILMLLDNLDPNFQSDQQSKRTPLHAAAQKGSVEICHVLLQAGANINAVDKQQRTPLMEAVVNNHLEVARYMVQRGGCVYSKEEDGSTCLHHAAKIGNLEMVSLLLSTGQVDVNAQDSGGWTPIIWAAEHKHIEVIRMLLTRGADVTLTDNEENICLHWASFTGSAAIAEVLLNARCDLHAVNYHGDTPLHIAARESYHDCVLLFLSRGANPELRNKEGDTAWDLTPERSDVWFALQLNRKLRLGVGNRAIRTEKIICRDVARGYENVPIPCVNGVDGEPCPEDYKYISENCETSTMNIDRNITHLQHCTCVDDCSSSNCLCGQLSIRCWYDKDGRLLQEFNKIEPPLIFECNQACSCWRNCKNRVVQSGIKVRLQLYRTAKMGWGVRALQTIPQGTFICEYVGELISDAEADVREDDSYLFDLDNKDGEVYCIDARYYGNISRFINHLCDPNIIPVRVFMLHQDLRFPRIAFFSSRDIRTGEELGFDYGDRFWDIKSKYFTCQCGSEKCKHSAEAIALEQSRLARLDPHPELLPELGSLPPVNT

SMILES | Potency | activity, negative = inhibition
O=C(NCCC(c1ccccc1)c1ccccc1)c1ccc(Br)o1 | inconclusive: 35.5 µM [inhibitor, single point] | 
CCCCCCOc1ccc(N2C(=O)CC(SCCN)C2=O)cc1 (centres undefined) | inconclusive: 89.1 µM [inhibitor, single point] | 
COc1ccccc1CNC(=S)Nc1ccc2nc(N3CCN(C)CC3)cc(C)c2c1 |  | inactive: -9.75%
C[C@@H]1CC=C[C@@H]2[C@H]1C(=O)N(Cc1ccccc1)[C@H]2c1cccc(C#Cc2ccccc2)c1 | inconclusive: 22.4 µM [inhibitor, partial curve] | 
Cc1cccc(NC(=O)Cn2c(=O)n(CCC(C)C)c(=O)c3cccnc32)c1 |  | inactive: -1.53%
O=C(CSc1nc2ccccc2s1)N1CCN(C(=O)c2ccco2)CC1 | inconclusive: 22.4 µM [inhibitor, single point] | 
Cc1ccc(NC(=O)c2cnn(-c3ccc(C)c(C)c3)c2C2CCN(C(=O)OC(C)(C)C)CC2)c(C)c1 |  | inactive: 13.4%
Cc1cccc(C(C)C)c1NS(=O)(=O)c1cn(C)nc1C |  | inactive: -5.86% [at 102 µM]
Cc1ccc([N+](=O)[O-])cc1S(=O)(=O)Nc1ccc(N2CCOCC2)cc1 | inconclusive: 39.8 µM [inhibitor, partial curve, poor fit] | 
COc1cccc(CN2CCN(Cc3ccco3)CC2)c1 | active: 10 µM | 
O=C(O)C1CC(c2ccc(F)cc2)=NO1 (centres undefined) | active: 12.6 µM | 
Cc1ccc(O)c(N=NC2=C(O)CC(C)(C)CC2=O)c1 | inconclusive: 22.4 µM [inhibitor, single point] | 
CCCCc1cc(=O)oc2cc(OCc3cc(OC)c(OC)c(OC)c3)c(Cl)cc12 |  | inactive: -30.8%
CCOC(=O)c1[nH]c(C)c(C(=O)O)c1C |  | inactive: -9.91% [at 102 µM]
COc1ccc(CCC(C)Nc2ccc(F)c(F)c2)cc1 (centres undefined) | inconclusive: 8.91 µM [inhibitor, single point] | 
COc1ccc(-n2nc([N+](=O)[O-])c(=NCc3ccc4c(c3)OCO4)n2O)cc1 | inconclusive: 28.2 µM [inhibitor, single point] | 
CN(C)CCn1c(C(=O)Nc2ccccc2)cc2ccccc21 | inconclusive: 79.4 µM [inhibitor, partial curve] | 
O=C(O)Cn1c(-c2cscn2)nc2ccccc21 | active: 44.7 µM | 
COCCOC(=O)/C(=C/c1ccc(OC(=O)c2ccccc2)cc1)C(C)=O | active: 50.1 µM | 
COCCN(C(=O)COC(=O)CC1CCCCC1)c1c(N)n(Cc2ccccc2)c(=O)[nH]c1=O |  | inactive: 33.4% [at 102 µM]
COc1ccc(S(=O)(=O)N2CCCCCC2)cc1NC(=O)CN(C)Cc1ccc2c(c1)OCO2 | inconclusive: 1 µM [inhibitor, single point] | 
Cc1ccccc1C(=O)Nc1cccc(NC(=O)c2ccccc2[N+](=O)[O-])c1 |  | inactive: 2.16% [at 102 µM]
O=C(NNS(=O)(=O)c1ccccc1F)c1ccccc1-n1cccc1 |  | inactive: -29.5% [at 102 µM]
O=C(O)CCC(=O)Nc1ccc(-c2csc(Nc3cccc4ccccc34)n2)cc1 |  | inactive: 3.17% [at 12.7 µM]
COc1cc([N+](=O)[O-])ccc1NC(=O)CCCOc1cc(C)ccc1C | inconclusive: 22.4 µM [inhibitor, single point] | 

SMILES | Potency | activity, negative = inhibition
CN1CCc2c(sc(/N=C/c3cc(C(C)(C)C)ccc3O)c2C#N)C1 | inconclusive: 28.2 µM [inhibitor, partial curve, poor fit] | 
Cc1cc(C)c2nc(-c3ccccn3)cc(C(=O)Nc3ccc(S(=O)(=O)Nc4onc(C)c4C)cc3)c2c1 | active: 12.6 µM | 
CCn1[nH]c(=O)c(=Nc2c(C)n(C)n(-c3ccccc3)c2=O)cc1-c1ccc(Cl)cc1 |  | inactive: 6.31%
Cc1cccc(/C(N)=N/OC(=O)COc2ccc(Cl)c(C)c2)c1 | inconclusive: 35.5 µM [inhibitor, partial curve, poor fit] | 
COc1ccc(C(=O)NC(=S)NC2CCSC2=O)cc1 (centres undefined) | active: 10 µM | 
CCN1C(=O)CC(Sc2ccccc2C(=O)O)C1=O (centres undefined) | inconclusive: 0.708 µM [inhibitor, full curve, poor fit] | 
Nc1nn2c(C(F)(F)F)cc(=O)[nH]c2c1N=Nc1cccc(F)c1 | inconclusive: 50.1 µM [inhibitor, partial curve, poor fit] | 
CCC(C)NC(=O)CSc1nc2ccc(N3CCOCC3)cc2c(=O)n1CCc1ccccc1 (centres undefined) |  | inactive: -50.6%
CCOC(=O)c1c(C(F)(F)C(F)(F)C(F)(F)C(F)(F)F)n[nH]c1C | inconclusive: 89.1 µM [inhibitor, single point] | 
Nc1nonc1N/N=C\c1ccccc1 |  | inactive: -1.57% [at 102 µM]
COc1cccc(CNC(=O)C2CCN(C(=O)N3CCOc4ccc(Cl)cc43)CC2)c1OC | inconclusive: 22.4 µM [inhibitor, partial curve, poor fit] | 
O=C(C1CC(c2ccccc2O)=NO1)N1CCCCC1 (centres undefined) |  | inconclusive: -102% [inhibitor]
CCn1c(CCc2nc3ccccc3[nH]2)n[nH]c1=S | inconclusive: 25.1 µM [inhibitor, single point] | 
c1coc(-c2nc3nc4ccccc4nc3n2-c2ccc3c(c2)OCCO3)c1 |  | inactive: 9.29% [at 2.33 µM]
CSc1oc(-c2ccccc2)nc1S(=O)(=O)c1ccc(F)cc1 | active: 39.8 µM | 
COc1cccc(C2C(C(=O)c3cc4ccccc4o3)=C(O)C(=O)N2c2cc(C)on2)c1 (centres undefined) | active: 44.7 µM | 
Cc1cc(N(C)C)nc(Nc2ccccc2)n1 | inconclusive: 17.8 µM [inhibitor, single point] | 
COc1ccccc1-n1c(CNC(=O)c2cccc([N+](=O)[O-])c2C)n[nH]c1=S | inconclusive: 15.8 µM [inhibitor, partial curve, poor fit] | 
C/C(=N\NC(N)=O)c1ccc(-n2ccnc2)cc1 |  | inactive: 19.8% [at 12.7 µM]
CCCCC(=O)Nc1cc(C)c(O)c(-c2nc3ncccc3o2)c1 |  | inactive: 14.6%
Clc1ccc(NCc2nnc3n2CCCCC3)cc1 |  | inactive: 3.49% [at 2.33 µM]
CC(C)(C)Cc1nnc(NC(=O)Cc2ccc([N+](=O)[O-])cc2)s1 | active: 10 µM | 
O=C(CCN1CCCCC1)c1ccccc1 | inconclusive: 39.8 µM [inhibitor, single point] | 
CC(C)(C)C(=O)Nc1ccc(S(=O)(=O)c2ccc(NC(=O)C(C)(C)C)cc2)cc1 | inconclusive: 3.16 µM [inhibitor, single point] | 
O=c1cc(CO)oc(C(Nc2cccc(C(F)(F)F)c2)c2ccccn2)c1O (centres undefined) | active: 1.26 µM | 

SMILES | Potency | activity, negative = inhibition
CCOC(=O)Nc1ccc(C)cc1NC(=O)OCC |  | inactive: 43.9% [at 102 µM]
CC(Sc1nnnn1-c1ccccc1)C(=O)Nc1ccc(N2CCN(C)CC2)cc1 (centres undefined) | inconclusive: 56.2 µM [inhibitor, partial curve, poor fit] | 
COc1ccc(/C=N/Nc2ccc(C(F)(F)F)cc2[N+](=O)[O-])cc1O | inconclusive: 15.8 µM [inhibitor, partial curve, poor fit] | 
Nc1ccc(N2CCCCC2)c(Cl)c1 | active: 44.7 µM | 
Cc1ccc(Cl)cc1Nc1nc2ccccc2c2nncn12 |  | inactive: 16.2%
Cc1cccc(N2CCN(C(=O)Cn3cccc3C(=O)c3ccccc3)CC2)c1C | inconclusive: 79.4 µM [inhibitor, partial curve, poor fit] | 
COc1ccc(-c2nc3cc(NC(=O)Cc4ccc(Cl)cc4)ccc3o2)cc1OC | inconclusive: 0.794 µM [inhibitor, partial curve, poor fit] | 
O=C(CC(=O)NN=C1CCCCCC1)NCc1cccnc1 |  | inactive: -3.32% [at 102 µM]
COc1cc(C(=O)NC(C)c2cnn(-c3ccccc3C)c2C)cc(OC)c1OC (centres undefined) |  | inactive: 6.98% [at 12.7 µM]
Cc1ccc(CCNC(=O)CCN2N=C(c3ccc(C)cc3)CCC2=O)cc1 |  | inactive: -4.59%
CCOC(=O)c1c[nH]c(=S)n(-c2ccccc2)c1=O |  | inactive: 23.9% [at 2.33 µM]
O=C(O)C(Cc1c[nH]c2ccccc12)N1C(=O)c2ccccc2C1=O (centres undefined) | inconclusive: 22.4 µM [inhibitor, full curve] and inconclusive: 89.1 µM [inhibitor, single point] | 
O=C(COC(=O)CSc1ccc(F)cc1)NNC(=O)c1ccc([N+](=O)[O-])cc1 |  | inactive: 0.275% [at 102 µM]
O=C1/C(=C\c2cccs2)SC(=S)N1C1CCS(=O)(=O)C1 (centres undefined) | inconclusive: 56.2 µM [inhibitor, partial curve, poor fit] | 
O=C(NCCC(=O)N1CCN(S(=O)(=O)c2ccc(F)cc2)CC1)Nc1ccccc1 |  | inactive: -9.83% [at 12.7 µM]
Cc1cccc(N2CCN(C(=O)NCc3ccc(F)cc3)CC2)c1C |  | inactive: -7.82% [at 102 µM]
Cc1ccc(Cl)cc1N1CCN(CC(O)COCc2ccco2)CC1 (centres undefined) | active: 11.2 µM | 
COc1cc(Cl)c(C)cc1NC(=O)CC1Oc2ccccc2NC1=O (centres undefined) |  | inactive: -20.9%
CCN(CC)C(=O)Cn1nnc(-c2ccc(S(C)(=O)=O)cc2)n1 | inconclusive: 89.1 µM [inhibitor, single point] | 
CN(C(=O)CSc1nc2ccc(NC(=O)c3cccc(F)c3)cc2s1)c1ccccc1 |  | inactive: -10.1%
O=C(COC(=O)Cc1ccc(S(=O)(=O)N2CCOCC2)s1)NCCc1ccccc1 | inconclusive: 89.1 µM [inhibitor, single point] | 
COc1cccc(C2N=C(c3ccccc3C)NO2)c1OC (centres undefined) | inconclusive: 89.1 µM [inhibitor, single point] | 
CCN(CC(=O)NCc1ccc(F)cc1)C(=O)CCNS(=O)(=O)c1cccc(C)c1 |  | inactive: -20.9% [at 12.7 µM]
CCOc1ccc(CNC(=O)c2ccc3c(Cl)c4c(nc3c2)CCCC4)cc1 |  | inactive: -0.38%
